Article PMC12820563
Some of the results follow. The list includes weakly bound sequences.

biological target: T1, MBP-FoxP3dN (UniProt Q99JB6); experiment: PD-seq (MBP pull-down with sequencing); settings: 20 mM Tris-HCl pH 7.5, 100 mM NaCl, 1.5 mM MgCl2, 0.4 uM protein, 0.1 uM dsDNA library, 30 min, room temperature, amylose pull-down; high values mean tight binding; double strand, one strand shown
T1 sequence: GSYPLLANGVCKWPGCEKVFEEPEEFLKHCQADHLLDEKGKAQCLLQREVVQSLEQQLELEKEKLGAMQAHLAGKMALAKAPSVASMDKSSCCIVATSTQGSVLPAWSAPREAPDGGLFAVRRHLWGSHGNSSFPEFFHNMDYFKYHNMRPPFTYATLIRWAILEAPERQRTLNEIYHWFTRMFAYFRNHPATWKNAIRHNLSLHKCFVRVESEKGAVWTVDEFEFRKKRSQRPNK

Row | Sequence | binding signal (RPM ratio (pull-down/input))
1 | GATGATTGTTCTCCCAGCTGATGAATTATCGATCTCGAGTAAACAAATTTTCCTAATCTTTCTGTTCAAGCGCCATCTAC | 0.385
2 | GATGATTGTTCTCCCAGCTGATGAATTGGTTATGTCGAGTAAACAAATTTTCCTAATCTTTCTGTTCAAGCGCCATCTAC | 2.38
3 | GATGATTGTTCTCCCAGCTGATGAATTGGACGCTTCGAGTAAACAAATTTTCCTAATCTTTCTGTTCAAGCGCCATCTAC | 0.494
4 | GATGATTGTTCTCCCAGCTGATGAATTCCTCCATTCGAGTAAACAAATTTTCCTAATCTTTCTGTTCAAGCGCCATCTAC | 0.272
5 | GATGATTGTTCTCCCAGCTGATGAATTCAGGCAATCGAGTAAACAAATTTTCCTAATCTTTCTGTTCAAGCGCCATCTAC | 1.5
6 | GATGATTGTTCTCCCAGCTGATGAATTGCAAGCGTCGAGTAAACAAATTTTCCTAATCTTTCTGTTCAAGCGCCATCTAC | 0.974
7 | GATGATTGTTCTCCCAGCTGATGAATTGCACCCGTCGAGTAAACAAATTTTCCTAATCTTTCTGTTCAAGCGCCATCTAC | 0.736
8 | GATGATTGTTCTCCCAGCTGATGAATTGTCAACCTCGAGTAAACAAATTTTCCTAATCTTTCTGTTCAAGCGCCATCTAC | 0.625
9 | GATGATTGTTCTCCCAGCTGATGAATTAATACGTTCGAGTAAACAAATTTTCCTAATCTTTCTGTTCAAGCGCCATCTAC | 0.606
10 | GATGATTGTTCTCCCAGCTGATGAATTGTTTCTGTCGAGTAAACAAATTTTCCTAATCTTTCTGTTCAAGCGCCATCTAC | 1
11 | GATGATTGTTCTCCCAGCTGATGAATTTGGGATATCGAGTAAACAAATTTTCCTAATCTTTCTGTTCAAGCGCCATCTAC | 0.503
12 | GATGATTGTTCTCCCAGCTGATGAATTTCCGACGTCGAGTAAACAAATTTTCCTAATCTTTCTGTTCAAGCGCCATCTAC | 0.265
13 | GATGATTGTTCTCCCAGCTGATGAATTATCTAGGTCGAGTAAACAAATTTTCCTAATCTTTCTGTTCAAGCGCCATCTAC | 0.191
14 | GATGATTGTTCTCCCAGCTGATGAATTGAGTAGGTCGAGTAAACAAATTTTCCTAATCTTTCTGTTCAAGCGCCATCTAC | 0.379
15 | GATGATTGTTCTCCCAGCTGATGAATTCGCATAGTCGAGTAAACAAATTTTCCTAATCTTTCTGTTCAAGCGCCATCTAC | 0.664
16 | GATGATTGTTCTCCCAGCTGATGAATTTGTCGACTCGAGTAAACAAATTTTCCTAATCTTTCTGTTCAAGCGCCATCTAC | 1.81
17 | GATGATTGTTCTCCCAGCTGATGAATTTGTATTCTCGAGTAAACAAATTTTCCTAATCTTTCTGTTCAAGCGCCATCTAC | 5.9
18 | GATGATTGTTCTCCCAGCTGATGAATTGGTCCTGTCGAGTAAACAAATTTTCCTAATCTTTCTGTTCAAGCGCCATCTAC | 0.354
19 | GATGATTGTTCTCCCAGCTGATGAATTTGATCTGTCGAGTAAACAAATTTTCCTAATCTTTCTGTTCAAGCGCCATCTAC | 0.416
20 | GATGATTGTTCTCCCAGCTGATGAATTCCCTGTATCGAGTAAACAAATTTTCCTAATCTTTCTGTTCAAGCGCCATCTAC | 0.404
21 | GATGATTGTTCTCCCAGCTGATGAATTACCGGCTTCGAGTAAACAAATTTTCCTAATCTTTCTGTTCAAGCGCCATCTAC | 0.307

Row | Sequence | binding signal (RPM ratio (pull-down/input))
22 | GATGATTGTTCTCCCAGCTGATGAATTGCCTTTGTCGAGTAAACAAATTTTCCTAATCTTTCTGTTCAAGCGCCATCTAC | 0.946
23 | GATGATTGTTCTCCCAGCTGATGAATTACTCTTCTCGAGTAAACAAATTTTCCTAATCTTTCTGTTCAAGCGCCATCTAC | 0.331
24 | GATGATTGTTCTCCCAGCTGATGAATTCCCCCTGTCGAGTAAACAAATTTTCCTAATCTTTCTGTTCAAGCGCCATCTAC | 0.198
25 | GATGATTGTTCTCCCAGCTGATGAATTCAATGGGTCGAGTAAACAAATTTTCCTAATCTTTCTGTTCAAGCGCCATCTAC | 0.623
26 | GATGATTGTTCTCCCAGCTGATGAATTCTACTGTTCGAGTAAACAAATTTTCCTAATCTTTCTGTTCAAGCGCCATCTAC | 0.567
27 | GATGATTGTTCTCCCAGCTGATGAATTCAATTAGTCGAGTAAACAAATTTTCCTAATCTTTCTGTTCAAGCGCCATCTAC | 1.25
28 | GATGATTGTTCTCCCAGCTGATGAATTGTCACAGTCGAGTAAACAAATTTTCCTAATCTTTCTGTTCAAGCGCCATCTAC | 0.37
29 | GATGATTGTTCTCCCAGCTGATGAATTTATTTCATCGAGTAAACAAATTTTCCTAATCTTTCTGTTCAAGCGCCATCTAC | 1.45
30 | GATGATTGTTCTCCCAGCTGATGAATTGGTCTTTTCGAGTAAACAAATTTTCCTAATCTTTCTGTTCAAGCGCCATCTAC | 0.439
31 | GATGATTGTTCTCCCAGCTGATGAATTCGCTTATTCGAGTAAACAAATTTTCCTAATCTTTCTGTTCAAGCGCCATCTAC | 2.49
32 | GATGATTGTTCTCCCAGCTGATGAATTCGTTTATTCGAGTAAACAAATTTTCCTAATCTTTCTGTTCAAGCGCCATCTAC | 4.83
33 | GATGATTGTTCTCCCAGCTGATGAATTTAGGCTCTCGAGTAAACAAATTTTCCTAATCTTTCTGTTCAAGCGCCATCTAC | 0.686
34 | GATGATTGTTCTCCCAGCTGATGAATTAGTTTGATCGAGTAAACAAATTTTCCTAATCTTTCTGTTCAAGCGCCATCTAC | 2
35 | GATGATTGTTCTCCCAGCTGATGAATTGCAATTGTCGAGTAAACAAATTTTCCTAATCTTTCTGTTCAAGCGCCATCTAC | 2.73
36 | GATGATTGTTCTCCCAGCTGATGAATTTGTTCAGTCGAGTAAACAAATTTTCCTAATCTTTCTGTTCAAGCGCCATCTAC | 1.74
37 | GATGATTGTTCTCCCAGCTGATGAATTAGAGCATTCGAGTAAACAAATTTTCCTAATCTTTCTGTTCAAGCGCCATCTAC | 5.15
38 | GATGATTGTTCTCCCAGCTGATGAATTCACGATATCGAGTAAACAAATTTTCCTAATCTTTCTGTTCAAGCGCCATCTAC | 0.437
39 | GATGATTGTTCTCCCAGCTGATGAATTGGCGCCATCGAGTAAACAAATTTTCCTAATCTTTCTGTTCAAGCGCCATCTAC | 2.41
40 | GATGATTGTTCTCCCAGCTGATGAATTCGACGATTCGAGTAAACAAATTTTCCTAATCTTTCTGTTCAAGCGCCATCTAC | 0.311
41 | GATGATTGTTCTCCCAGCTGATGAATTAGTGTTTTCGAGTAAACAAATTTTCCTAATCTTTCTGTTCAAGCGCCATCTAC | 2.82
42 | GATGATTGTTCTCCCAGCTGATGAATTTACTACATCGAGTAAACAAATTTTCCTAATCTTTCTGTTCAAGCGCCATCTAC | 0.69

Row | Sequence | binding signal (RPM ratio (pull-down/input))
43 | GATGATTGTTCTCCCAGCTGATGAATTAATAAAGTCGAGTAAACAAATTTTCCTAATCTTTCTGTTCAAGCGCCATCTAC | 0.23
44 | GATGATTGTTCTCCCAGCTGATGAATTCCACCGATCGAGTAAACAAATTTTCCTAATCTTTCTGTTCAAGCGCCATCTAC | 0.315
45 | GATGATTGTTCTCCCAGCTGATGAATTTTTTTCCTCGAGTAAACAAATTTTCCTAATCTTTCTGTTCAAGCGCCATCTAC | 0.246
46 | GATGATTGTTCTCCCAGCTGATGAATTTGACGGGTCGAGTAAACAAATTTTCCTAATCTTTCTGTTCAAGCGCCATCTAC | 0.471
47 | GATGATTGTTCTCCCAGCTGATGAATTATCACAATCGAGTAAACAAATTTTCCTAATCTTTCTGTTCAAGCGCCATCTAC | 0.504
48 | GATGATTGTTCTCCCAGCTGATGAATTGAGGTCCTCGAGTAAACAAATTTTCCTAATCTTTCTGTTCAAGCGCCATCTAC | 0.404
49 | GATGATTGTTCTCCCAGCTGATGAATTTTGGGCCTCGAGTAAACAAATTTTCCTAATCTTTCTGTTCAAGCGCCATCTAC | 0.471
50 | GATGATTGTTCTCCCAGCTGATGAATTGCCTTTCTCGAGTAAACAAATTTTCCTAATCTTTCTGTTCAAGCGCCATCTAC | 0.937
51 | GATGATTGTTCTCCCAGCTGATGAATTGCTTTAGTCGAGTAAACAAATTTTCCTAATCTTTCTGTTCAAGCGCCATCTAC | 0.719
52 | GATGATTGTTCTCCCAGCTGATGAATTTTGTAGGTCGAGTAAACAAATTTTCCTAATCTTTCTGTTCAAGCGCCATCTAC | 1.8
53 | GATGATTGTTCTCCCAGCTGATGAATTGTTCAGGTCGAGTAAACAAATTTTCCTAATCTTTCTGTTCAAGCGCCATCTAC | 0.281
54 | GATGATTGTTCTCCCAGCTGATGAATTCTCCAATTCGAGTAAACAAATTTTCCTAATCTTTCTGTTCAAGCGCCATCTAC | 0.242
55 | GATGATTGTTCTCCCAGCTGATGAATTTTCAATCTCGAGTAAACAAATTTTCCTAATCTTTCTGTTCAAGCGCCATCTAC | 0.254
56 | GATGATTGTTCTCCCAGCTGATGAATTTCTACCTTCGAGTAAACAAATTTTCCTAATCTTTCTGTTCAAGCGCCATCTAC | 0.232
57 | GATGATTGTTCTCCCAGCTGATGAATTGAGCTCCTCGAGTAAACAAATTTTCCTAATCTTTCTGTTCAAGCGCCATCTAC | 0.637
58 | GATGATTGTTCTCCCAGCTGATGAATTAAGAGCCTCGAGTAAACAAATTTTCCTAATCTTTCTGTTCAAGCGCCATCTAC | 0.471
59 | GATGATTGTTCTCCCAGCTGATGAATTCACTACATCGAGTAAACAAATTTTCCTAATCTTTCTGTTCAAGCGCCATCTAC | 0.507
60 | GATGATTGTTCTCCCAGCTGATGAATTCATCTGATCGAGTAAACAAATTTTCCTAATCTTTCTGTTCAAGCGCCATCTAC | 0.248
61 | GATGATTGTTCTCCCAGCTGATGAATTCCACCGGTCGAGTAAACAAATTTTCCTAATCTTTCTGTTCAAGCGCCATCTAC | 0.2
62 | GATGATTGTTCTCCCAGCTGATGAATTATTCTACTCGAGTAAACAAATTTTCCTAATCTTTCTGTTCAAGCGCCATCTAC | 0.361
63 | GATGATTGTTCTCCCAGCTGATGAATTCTCAGTATCGAGTAAACAAATTTTCCTAATCTTTCTGTTCAAGCGCCATCTAC | 0.375
